Measurements published in the supplement of paper PMC3334620.
Whole data set: some 33,000 sequences, median “E-score (-0.5 to 0.5)” near -0.012, cut for the highest 2% near 0.27. The list shows a part of the results.

molecular target: T1, Vhr1 (UniProt P40522); experiment: PBM E-score (8-mer binding enrichment) (E-score (-0.5 to 0.5)); higher = stronger / more preferred TF binding; most listed sequences are background and not binding sites; conditions: protein concentration: 200 nM; construct: GST-full length
T1 sequence: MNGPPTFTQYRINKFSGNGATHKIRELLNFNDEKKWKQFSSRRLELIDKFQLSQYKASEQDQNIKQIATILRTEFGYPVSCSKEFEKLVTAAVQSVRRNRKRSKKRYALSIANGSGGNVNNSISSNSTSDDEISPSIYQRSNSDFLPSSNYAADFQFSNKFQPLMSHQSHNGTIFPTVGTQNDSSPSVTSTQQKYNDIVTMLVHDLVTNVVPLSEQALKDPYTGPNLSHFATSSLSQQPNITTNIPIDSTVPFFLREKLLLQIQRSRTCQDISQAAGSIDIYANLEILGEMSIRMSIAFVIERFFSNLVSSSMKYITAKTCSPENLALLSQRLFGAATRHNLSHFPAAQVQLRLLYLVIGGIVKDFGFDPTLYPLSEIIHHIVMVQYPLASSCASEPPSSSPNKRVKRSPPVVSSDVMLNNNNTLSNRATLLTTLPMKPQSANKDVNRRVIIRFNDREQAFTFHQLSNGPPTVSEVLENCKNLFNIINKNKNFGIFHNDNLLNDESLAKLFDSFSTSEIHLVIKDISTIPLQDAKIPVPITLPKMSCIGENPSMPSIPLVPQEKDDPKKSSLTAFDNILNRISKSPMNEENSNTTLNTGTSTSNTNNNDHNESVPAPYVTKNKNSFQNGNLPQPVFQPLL
Method: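 Universal 'all 10-mer' protein binding microarrays (Agilent AMADID 015681) probed with GST-tagged S. cerevisiae TFs (full-length or DBD) made by in vitro transcription/translation (PURExpress), about 100-200 nM. Bound TF was detected with fluorescent anti-GST. Each ungapped 8-mer (which stands for itself and its reverse complement) is scored by the PBM enrichment score (E-score), a modified Wilcoxon-Mann-Whitney statistic from -0.5 to +0.5, computed with the Universal PBM Analysis Suite. Scale: above 0.35 generally sequence-specific binding.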

Row | Sequence | PBM E-score
1 | GGTAATTA | -0.0818
2 | GACATGAC | 0.202
3 | CCGAATTC | -0.00329
4 | AAGCTCTA | -0.267
5 | ATCACGGG | 0.00381
6 | CGACGGCA | -0.181
7 | GAAATGCA | -0.00636
8 | GCGCTGCC | -0.188
9 | CAATCGAG | 0.00933
10 | ACCATGTC | 0.144
11 | CGGTTTTA | -0.0933
12 | CATTCCCC | 0.14
13 | GCGTGACA | 0.0875
14 | CTGCTATA | 0.0862
15 | CCTAAGCA | -0.108
16 | AGTAACTG | -0.155
17 | ACGGACAA | 0.0257
18 | AGCAAACT | 0.0348
19 | CGTGTTGC | 0.103
20 | CGATCGCG | 0.0985
21 | ACTTTTTC | -0.142
22 | CAGCCTCA | 0.00707
23 | AAAATAGC | -0.171
24 | CACTTATC | 0.078
25 | CTGGGCAA | -0.00184

Row | Sequence | PBM E-score
26 | CAATTTAA | -0.0106
27 | ACTGGTAG | 0.161
28 | ACGACTTC | 0.0846
29 | GGCGTACA | 0.00512
30 | ATATTCAC | 0.0124
31 | CCACGTCC | -0.132
32 | CGGTTCTC | -0.171
33 | CCGCTACG | -0.236
34 | GAGGCACC | -0.169
35 | ACCTGTTG | -0.126
36 | CAAGGGGC | -0.1
37 | AAGACGCG | -0.151
38 | ACATCCGA | 0.0152
39 | TAATGACA | 0.0997
40 | ACACAATG | 0.267
41 | AGTAACGG | -0.0546
42 | GGGATCAC | -0.0964
43 | CGGCCCTC | -0.148
44 | CCGATAGC | -0.166
45 | AGGAGTAT | 0.0083
46 | AGATAGCC | -0.135
47 | CGCAGACC | -0.0379
48 | ATCTTCTG | -0.113
49 | CCCGACGC | -0.0991
50 | AAGAAGAC | -0.0464

Row | Sequence | PBM E-score
51 | CAGAATTC | -0.152
52 | AACCCACA | 0.168
53 | CCCGATCA | -0.112
54 | CACAGTGG | -0.0197
55 | GGACCGAC | 0.097
56 | AACATGGA | -0.00024
57 | GGGATAGA | -0.128
58 | GATGTGCC | -0.00921
59 | GACCTGGC | -0.19
60 | GGTGTTAC | 0.162
61 | AACACGAC | 0.0199
62 | AATCTCAA | 0.0312
63 | CCACCTCA | 0.0419
64 | ACTTAGCA | -0.22
65 | GAGCTTCC | 0.108
66 | CACCGCAA | 0.186
67 | GCTCCTCC | -0.19
68 | AGACAAAA | -0.0898
69 | ATGCTGGA | -0.001
70 | GCACTCGC | 0.0364
71 | GCAGCGGA | 0.0598
72 | AAGTGACA | 0.0587
73 | GCTAGCAC | -0.118
74 | TACCCATA | 0.166
75 | GGGTGTGA | 0.135

Row | Sequence | PBM E-score
76 | CCTCCGCA | -0.114
77 | CATCCATA | 0.125
78 | CACAGGAA | 0.0584
79 | ACAATCGG | -0.081
80 | GCATTGAC | -0.0613
81 | GCGTGCGA | 0.00545
82 | GGAGGAAA | -0.015
83 | GTGCTGCA | 0.0908
84 | CCCGGAGA | 0.151
85 | CGTGAAAA | -0.0731
86 | GCTGACGA | 0.0793
87 | ATCAGGGC | -0.139
88 | CTTCATCA | -0.102
89 | CGATAGGC | -0.201
90 | AGGGACTA | 0.021
91 | ATGGTGAC | 0.26
92 | CAGAACTC | 0.0112
93 | AATGATGG | 0.205
94 | AATTCCCG | -0.2
95 | CAAGAATG | -0.0889
96 | GATAACAC | 0.0381
97 | AGGTATCC | 0.0545
98 | ACATACAC | 0.18
99 | CGTTTACC | -0.0172
100 | GATCCAAC | -0.0773

Row | Sequence | PBM E-score
101 | CTTACAAC | -0.164
102 | CTGAGCAG | -0.00712
103 | AACGCCGC | 0.0464
104 | CCCTATAG | -0.041
105 | GTAGTAAC | -0.0181
106 | CACAAGGA | 0.232
107 | ACTGGGGG | -0.254
108 | AATTGCGG | 0.0349
109 | GTTCGAGA | -0.103
110 | ATAAAGCC | -0.101
111 | AACTTCCT | -0.0302
112 | CAGTAGAA | 0.0147
113 | CGGGTGAC | 0.143
114 | GCGACGCC | 0.205
115 | AGAATATG | 0.0849
116 | GCCGTCAC | -0.0509
117 | CTATTCTA | 0.0124
118 | GCTTTAGA | -0.213
119 | AGGATATA | 0.147
120 | CCAGTGTA | 0.0957
121 | ACAGCATG | 0.153
122 | AATAGCCT | 0.0684
123 | TCAGTTAA | -0.108
124 | ACTGCATG | 0.193
125 | CAAGCAAA | 0.026

Row | Sequence | PBM E-score
126 | CCATCTGA | 0.175
127 | TTCAAAAA | -0.198
128 | TAAGCTTA | 0.117
129 | CACACATC | 0.155
130 | GTCGGACA | -0.16
131 | TGGAGACA | 0.21
132 | CAATGTTA | -0.117
133 | CGGGACAC | 0.167
134 | AAAACTGG | -0.054
135 | ACCTCGCC | -0.0575
136 | ACAGCACT | -0.0389
137 | TATACATA | 0.167
138 | CGAAGCAC | -0.0649
139 | GGCGACCA | -0.193
140 | GGCTGTTA | -0.0965
141 | GTAGAACA | -0.175
142 | AACTAATT | -0.0436
143 | CGTCGTTA | -0.0921
144 | GCTTTCTA | -0.0897
145 | CACACAAG | 0.177
146 | CTAAGACC | 0.0909
147 | CTCCATAA | -0.0784
148 | AAGTGCCG | -0.208
149 | GCTGGACA | -0.0617
150 | AAAAAACC | -0.173

Row | Sequence | PBM E-score
151 | AGAGCCAA | 0.071
152 | TGGGACCA | -0.0292
153 | GAGTAAAA | -0.102
154 | ACTAAATG | 0.0404
155 | CAGGAAGC | 0.121
156 | GCGTGCAA | -0.0681
157 | AGTGCCAC | -0.247
158 | AAAACCGG | 0.136
159 | AAGCTGGG | -0.0313
160 | AGATGTCC | -0.173
161 | TAGCCTAA | -0.142
162 | GTAGGGAC | -0.077
163 | ACTGGTGC | 0.158
164 | GAGGCGGC | 0.0803
165 | CATATGAG | 0.219
166 | GGCAGGAA | -0.186
167 | GTACGGTA | 0.00151
168 | ACCAAGAC | 0.0377
169 | ATCCGAAA | -0.11
170 | CTCTTCGA | -0.127
171 | CCGCGAGG | 0.249
172 | AGTCTCCC | 0.202
